# Results reported in PubChem BioAssay AID588342 (National Center for Advancing Translational Sciences (NCATS), 2011).
# Screen size: about 360,000 compounds; about 25,000 (6.9%) were called active. Inconclusive results, whose numbers are uncertain, are shown with a selection of clear calls. The call rests on the fitted dose curve; in most records, active means well fitted inhibition curve with a large enough effect; inconclusive means small, poorly fitted or top-dose-only effect; inactive means flat fitted curve, though single readings scatter. Where the call is inconclusive, the potency comes from a doubtful curve fit.
# Biological target: Luciferin 4-monooxygenase (Photinus pyralis) (UniProt P08659)
# UniProt P08659, sequence (P08659 whole entry, looked up): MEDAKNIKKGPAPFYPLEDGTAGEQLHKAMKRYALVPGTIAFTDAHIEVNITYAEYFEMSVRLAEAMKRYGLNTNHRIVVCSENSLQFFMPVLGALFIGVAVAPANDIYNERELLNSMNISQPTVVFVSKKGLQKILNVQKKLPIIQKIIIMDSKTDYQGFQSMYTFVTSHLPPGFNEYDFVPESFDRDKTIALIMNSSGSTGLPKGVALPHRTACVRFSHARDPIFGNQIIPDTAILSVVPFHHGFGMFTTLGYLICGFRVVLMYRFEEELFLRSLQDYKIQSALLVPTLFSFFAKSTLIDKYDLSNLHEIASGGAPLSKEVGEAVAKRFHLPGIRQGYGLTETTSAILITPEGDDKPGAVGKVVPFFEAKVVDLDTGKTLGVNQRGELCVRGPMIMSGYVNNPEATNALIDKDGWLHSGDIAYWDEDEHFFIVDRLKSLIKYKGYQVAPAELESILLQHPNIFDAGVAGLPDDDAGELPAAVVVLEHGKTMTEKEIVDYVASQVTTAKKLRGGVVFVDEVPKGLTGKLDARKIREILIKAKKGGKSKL
# Test: qHTS profiling assay for firefly luciferase inhibitor/activator using purifed enzyme and Km concentrations of substrates (counterscreen for miR-21 project); further: nearly all actives have a fitted effect of over 55% in size
# Settings: purified FLuc, luminescence inhibition; series mostly up to 57.5 µM
# Method in brief: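 Purified P. pyralis luciferase (10nM final) with 10uM D-luciferin and 10uM ATP (Km levels) in 50mM Tris acetate pH 7.5, 10mM Mg acetate, 0.01% Tween-20, 0.05% BSA; qHTS 6-point titration, ~60 µM downward; luminescence read.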
# Potency means the concentration at half of the fitted maximal effect; tags describe the fitted curve by direction and shape.
row,SMILES,Potency
1,COc1cccc(NC(=O)C(=O)NCCC2CCCCN2S(=O)(=O)c2ccccc2)c1 (stereo not given),active: 23.9 µM
2,O=C1/C(=C\c2ccccn2)SC(=S)N1Nc1ncc(C(F)(F)F)cc1Cl,"inconclusive: 15.1 µM [inhibitor, partial curve, poor fit]"
3,CC1=NN(c2ccc([N+](=O)[O-])cc2)C(=O)/C1=C\N(C)C,active: 10.7 µM
4,CS(=O)(=O)c1ccc(-c2nnc(NC(=O)c3cccc(N4C(=O)CCC4=O)c3)o2)cc1,"inconclusive: 19 µM [inhibitor, partial curve]"
5,COc1ccc(/C=C/C(=O)Nc2nc(N)n(-c3ccccc3)n2)cc1,"inconclusive: 21.3 µM [inhibitor, partial curve]"
6,COc1cccc(CN2C(=O)CN(C3CCCCC3)C(=O)C2c2ccc(OC(C)C)c(OC)c2)c1 (stereo not given),inactive
7,O=C(/C=C/Nc1ccc(S(=O)(=O)Nc2ncccn2)cc1)c1ccc2ccccc2c1,"inconclusive: 2.13 µM [inhibitor, full curve]"
8,O=c1cc(-c2ccc(C3CCCCC3)cc2)[nH][nH]1,active: 10.7 µM
9,Cc1ccc(NC(=O)CNC(=O)Cc2cccc3ccccc23)nc1,inactive
10,N#C/C(=C\c1cccc(O)c1)c1nc2ccccc2o1,active: 8.49 µM
11,CC(C)c1ccc(NC(=O)CSc2n[nH]c(=O)n2-c2ccc3c(c2)OCCO3)cc1,inactive
12,C/C(CC(=O)Nc1ccc(Cl)cc1C(F)(F)F)=N\NC(=O)c1cccs1,"inconclusive: 26.9 µM [inhibitor, single point]"
13,O=C(CCCN1C(=O)/C(=C/c2cccc(Br)c2)SC1=S)N1CCOCC1,"inconclusive: 21.3 µM [inhibitor, single point]"
14,COc1cc(N=Nc2c(O)c3ccccc3[nH]c2=O)c(OC)cc1N=Nc1ccccc1,active: 15.1 µM
15,CSc1nc2nccc(-c3ccc(-c4ccccc4)cc3)n2n1,"inconclusive: 26.9 µM [inhibitor, partial curve, poor fit]"
16,O=C(COc1cc(Cl)c(Cl)cc1Cl)NC(=O)Nc1ccc2c(c1)OCCO2,active: 21.3 µM
17,O=C(O)/C=C\C(=O)Nc1ccc(N2CCN(c3cccc(Cl)c3)CC2)cc1,"inconclusive: 19 µM [inhibitor, partial curve, poor fit]"
18,CC1CCc2c(nc3ncnn3c2NCCc2ccccc2F)C1 (stereo not given),"inconclusive: 26.9 µM [inhibitor, partial curve]"
19,CCCOc1cccc(C(=O)Nc2cccc3ncccc23)c1,inactive
20,COc1ccc(OCCOC(=O)CNC(=O)c2ccc(Cl)cc2Cl)cc1,"inconclusive: 37.9 µM [inhibitor, single point]"
21,Cc1nc2cc(NC(=O)NCc3ccco3)ccc2o1,"inconclusive: 37.9 µM [inhibitor, single point]"
22,CCN(c1ccccc1C)S(=O)(=O)c1nnc(NC(=O)c2ccccc2C)s1,"inconclusive: 4.78 µM [inhibitor, partial curve]"
23,CCCS(=O)(=O)c1nc(S(=O)(=O)c2ccc(C)cc2)c(NCc2ccc3c(c2)OCO3)s1,inactive

row,SMILES,Potency
1,COc1ccccc1NC(=O)Nc1cc(F)ccc1F,active: 23.9 µM
2,O=[N+]([O-])c1cccc(-c2c(-c3ccccc3)ncc3cc(F)ccc23)c1,"inconclusive: 13.5 µM [inhibitor, single point]"
3,O=C(N/N=C/C1CC=CCC1)c1ccc(O)cc1O (stereo not given),active: 19 µM
4,COc1cccc(/C=N/N2CCOCC2)c1O,active: 6.75 µM
5,CCOC(=O)CC1CCCCN1C(=O)c1ccc2oc(CCc3ccccc3)nc2c1 (stereo not given),"inconclusive: 37.9 µM [inhibitor, partial curve, poor fit]"
6,CCN1C(=O)C(C)S/C1=N\S(=O)(=O)c1ccc(Cl)s1 (stereo not given),inactive
7,COc1ccc(CNC(=O)Cc2coc3ccc(C)cc23)cc1,"inconclusive: 23.9 µM [inhibitor, partial curve, poor fit]"
8,CCC(CC)C(=O)Nc1cccc(C(=O)Nc2ccc3c(c2)OCO3)c1,"inconclusive: 23.9 µM [inhibitor, single point]"
9,CCCCN(CC)C(=O)c1c[nH]c2ccc(S(=O)(=O)N(C)c3ccc(Cl)cc3)cc2c1=O,"inconclusive: 9.53 µM [inhibitor, partial curve, poor fit]"
10,Cc1cc(S(=O)(=O)N(Cc2ccc(C(C)C)cc2)CC2CCCO2)ccc1-n1cnnn1 (stereo not given),inactive
11,COc1ccc(-n2nc(C(=O)NCC(=O)N3CCN(c4ccccc4F)CC3)c3ccccc3c2=O)cc1,active: 0.338 µM
12,Cc1ccc(N/C=C2\CCCCC2=O)nc1,active: 21.3 µM
13,COc1ccc(C(=O)n2nnc3ccccc32)cc1OC,"inconclusive: 19 µM [inhibitor, partial curve]"
14,Cc1cc(C)nc(N/N=C/c2c(CO)cnc(C)c2O)n1,"inconclusive: 23.9 µM [inhibitor, partial curve]"
15,CC(C)c1ccc(/C=C2\SC(N3CCCC3)=NC2=O)cc1,"inconclusive: 23.9 µM [inhibitor, single point]"
16,Cc1cccc(C(=O)O/N=C2\CCSc3ccc(C)cc32)c1,"inconclusive: 19 µM [inhibitor, partial curve]"
17,COc1ccc2[nH]c(C(=O)O)c(CCNC(=O)/C=C/c3ccc(O)c(OC)c3)c2c1,"inconclusive: 37.9 µM [inhibitor, partial curve, poor fit]"
18,COc1cc(C(=O)Oc2cccc(/C=N/NC(=O)c3cc(C)[nH]n3)c2)cc(OC)c1OC,"inconclusive: 21.3 µM [inhibitor, single point]"
19,CC(C)Cn1c(N)c(C(=O)COC(=O)c2ccc3c(c2)OCCO3)c(=O)n(C)c1=O,"inconclusive: 33.8 µM [inhibitor, single point]"
20,Cc1nc2ccccc2nc1N1CCC(C)CC1,"inconclusive: 37.9 µM [inhibitor, single point]"
21,CS(=O)(=O)c1ccc(Cl)c(NC(=O)c2cccc(-n3cnnn3)c2)c1,inactive
22,CC(C)c1ccc(C(O)c2cnc(C(C)C)n2C)cc1 (stereo not given),"inconclusive: 15.1 µM [inhibitor, partial curve, poor fit]"
